What was measured:
[1] = tested on: Htt phosphorylated at S13 and S16; experiment: Htt phosphorylation at Ser13 and Ser16 by N17pS13pS16 immunostaining, YAC128 (HD) cortical neurons; assay type: cell-based, mouse; details: primary HD neurons (YAC128 cortical), GM1 50 μM, 2 hours
Procedure: Cultures of primary cortical neurons were prepared from newborn mice (P0). Briefly, the brain was dissected and selected regions were minced and digested with 1 mg/ml papain for 10 minutes at 37° C. DNAse was added to the digestion mix in the last 5 minutes of incubation. Cells were centrifuged at 200×g for 1 minute, resuspended in Neurobasal-A medium (Invitrogen) supplemented with 1% B27 (Invitrogen) and gently dissociated by pipetting up and down. Neurons were plated onto poly-D-lysine-coated wells at a density of 0.1×10^6 cells/cm^2 and used for experiments at 10-12 days in vitro.

[2] = tested on: Htt phosphorylated at S13 and S16; experiment: Htt phosphorylation at Ser13 and Ser16 by N17pS13pS16 immunostaining, fibroblasts from HD patients; details: human fibroblasts derived from HD patients, GM1 50 μM, 2 hours
Procedure: Cells were seeded onto glass coverslips coated with 50 μg/ml poly-L-lysine. The day after, cells were treated with 50 μM GM1 for 5 hours, washed and fixed in 4% paraformaldehyde at room temperature (r.t.) for 10 minutes. After cell permeabilization with 0.1% Triton X-100 for 5 minutes, incubation with anti-phosphoSer13, phosphoser16 antibody (N17pS13pS16, kindly donated by Dr. Truant, McMaster University, Canada) was performed at 1:1000 dilution in PBS+4% donkey serum for 1 hour at r.t. Secondary antibody used were anti-rabbit Alexa-A488 (for knock-in cells and neurons) and anti-rabbit Alexa-A555 (for human fibroblasts), used at 1:500 dilution in PBS+4% donkey serum for 1 hour at r.t. After 3 washes, nuclei were counterstained with DAPI and the slides were mounted with ProLong Gold antifading reagent (Invitrogen). Analysis was performed with a Zeiss Axiovert 100 epifluorescent microscope or with a LSM510 laser scanning confocal microscope mounted on a Zeiss Axiovert 100M microscope (for fibroblasts). Images of wild-type and HD cells were acquired using the same confocal settings or same exposure time.
In FIG. 16, Panel A, immortalized striatal cells (111/1111) were incubated for 2 hours with or without GM1. Cells were fixed and immunostained with N17pS13pS16 antibody, which recognizes Htt phosphorylated at S13 and S16. […]

STHdh^111Q/111Q cells = experiment: Induction and measurement of apoptosis (annexin V binding / active caspase-3, FACS) in HD knock-in striatal cells

ganglioside GM1
phosphorylation of Htt on Ser13 and Ser16 [1]: increases phosphorylation of Htt on Ser13 and Ser16 | phosphorylation of Htt on Ser13 and Ser16 [2]: increases phosphorylation of Htt on Ser13 and Ser16 | most effective (neuroprotective) GM1 concentration in the in cell studies (STHdh^111Q/111Q cells): 50 µM
